Results as given in the supplement of paper PMC8728848.
Some of the results follow.

Experiments:
Assay in all cases: glycan array binding signal (z-score within array); higher = stronger binding
Settings in all cases: glycan notation: IUPAC condensed, linker removed
[1] = target: Fuc(a1-2)Gal
Method in brief: (§1)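 Columns mapping to the same glycan were averaged after glycan names were converted to IUPAC-condensed notation. The data come from 3228 arrays in the Consortium for Functional Glycomics database, limited to those with an available protein sequence. Binding is reported as a within-array Z-score averaged across arrays of one protein sequence and across linkers.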

[2] = target: Fuc(a1-2)Gal(b1-3)GalNAc
Method in brief: as §1

[3] = target: Fuc(a1-2)Gal(b1-3)GalNAc(a1-3)[Fuc(a1-2)]Gal(b1-4)Glc
Method in brief: as §1

[4] = target: Fuc(a1-2)Gal(b1-3)GalNAc(a1-3)[Fuc(a1-2)]Gal(b1-4)GlcNAc
Method in brief: as §1

[5] = target: Fuc(a1-2)Gal(b1-3)GalNAc(b1-3)Gal
Method in brief: as §1

[6] = target: Fuc(a1-2)Gal(b1-3)GalNAc(b1-3)Gal(a1-4)Gal(b1-4)Glc
Method in brief: as §1

[7] = target: Fuc(a1-2)Gal(b1-3)GalNAc(b1-4)[Neu5Ac(a2-3)]Gal(b1-4)Glc
Method in brief: as §1

[8] = target: Fuc(a1-2)Gal(b1-3)GlcNAc
Method in brief: as §1

[9] = target: Fuc(a1-2)Gal(b1-3)GlcNAc(b1-2)Man(a1-3)[Fuc(a1-2)Gal(b1-3)GlcNAc(b1-2)Man(a1-6)]Man(b1-4)GlcNAc(b1-4)GlcNAc
Method in brief: as §1

[10] = target: Fuc(a1-2)Gal(b1-3)GlcNAc(b1-2)Man(a1-3)[Fuc(a1-2)Gal(b1-3)GlcNAc(b1-2)Man(a1-6)]Man(b1-4)GlcNAc(b1-4)[Fuc(a1-6)]GlcNAc
Method in brief: as §1

[11] = target: Fuc(a1-2)Gal(b1-3)GlcNAc(b1-3)Gal(b1-4)Glc
Method in brief: as §1

[12] = target: Fuc(a1-2)Gal(b1-3)GlcNAc(b1-3)GalNAc
Method in brief: as §1

[13] = target: Fuc(a1-2)Gal(b1-3)GlcNAc(b1-3)[Fuc(a1-2)Gal(b1-3)GlcNAc(b1-6)]GalNAc
Method in brief: as §1

[14] = target: Fuc(a1-2)Gal(b1-3)GlcNAc(b1-3)[Gal(b1-4)GlcNAc(b1-6)]Gal(b1-4)Glc
Method in brief: as §1

[15] = target: Fuc(a1-2)Gal(b1-3)GlcNAc(b1-3)[Neu5Ac(a2-6)Gal(b1-4)GlcNAc(b1-6)]Gal(b1-4)Glc
Method in brief: as §1

[16] = target: Fuc(a1-2)Gal(b1-3)GlcNAc6S
Method in brief: as §1

[17] = target: Fuc(a1-2)Gal(b1-3)[Fuc(a1-4)]GlcNAc
Method in brief: as §1

[18] = target: Fuc(a1-2)Gal(b1-3)[Fuc(a1-4)]GlcNAc(b1-2)Man(a1-3)[Fuc(a1-2)Gal(b1-3)[Fuc(a1-4)]GlcNAc(b1-2)Man(a1-3)]Man(b1-4)GlcNAc(b1-4)GlcNAc
Method in brief: as §1

[19] = target: Fuc(a1-2)Gal(b1-3)[Fuc(a1-4)]GlcNAc(b1-2)Man(a1-3)[Fuc(a1-2)Gal(b1-3)[Fuc(a1-4)]GlcNAc(b1-2)Man(a1-6)]Man(b1-4)GlcNAc(b1-4)[Fuc(a1-6)]GlcNAc(b1-4)[Fuc(a1-6)]GlcNAc
Method in brief: as §1

[20] = target: Fuc(a1-2)Gal(b1-3)[Fuc(a1-4)]GlcNAc(b1-3)[Fuc(a1-3)[Gal(b1-4)]GlcNAc(b1-6)]Gal(b1-4)Glc
Method in brief: as §1

[21] = target: Fuc(a1-2)Gal(b1-3)[Fuc(a1-4)]GlcNAc(b1-3)[Gal(b1-4)GlcNAc(b1-6)]Gal(b1-4)Glc
Method in brief: as §1

[22] = target: Fuc(a1-2)Gal(b1-4)Fuc(a1-3)]GlcNAc(b1-2)Man(a1-3)[Fuc(a1-2)Gal(b1-4)[Fuc(a1-3)]GlcNAc(b1-2)Man(a1-6)]Man(b1-4)GlcNAc(b1-4)GlcNAc
Method in brief: as §1

[23] = target: Fuc(a1-2)Gal(b1-4)Glc
Method in brief: as §1

[24] = target: Fuc(a1-2)Gal(b1-4)Glc6S
Method in brief: as §1

[25] = target: Fuc(a1-2)Gal(b1-4)GlcNAc
Method in brief: as §1

[26] = target: Fuc(a1-2)Gal(b1-4)GlcNAc(b1-2)Man
Method in brief: as §1

[27] = target: Fuc(a1-2)Gal(b1-4)GlcNAc(b1-2)Man(a1-3)[Fuc(a1-2)Gal(b1-4)GlcNAc(b1-2)Man(a1-6)]Man(b1-4)GlcNAc(b1-4)GlcNAc
Method in brief: as §1

[28] = target: Fuc(a1-2)Gal(b1-4)GlcNAc(b1-2)Man(a1-3)[Fuc(a1-2)Gal(b1-4)GlcNAc(b1-2)Man(a1-6)]Man(b1-4)GlcNAc(b1-4)[Fuc(a1-6)]GlcNAc
Method in brief: as §1

[29] = target: Fuc(a1-2)Gal(b1-4)GlcNAc(b1-2)[Fuc(a1-2)Gal(b1-4)GlcNAc(b1-4)]Man(a1-3)[Fuc(a1-2)Gal(b1-4)GlcNAc(b1-2)Man(a1-6)]Man(b1-4)GlcNAc(b1-4)GlcNAc
Method in brief: as §1

[30] = target: Fuc(a1-2)Gal(b1-4)GlcNAc(b1-3)Gal(b1-4)GlcNAc
Method in brief: as §1

B1: Epa3 (Candida glabrata), Q6VBI8_CANGB (protein)
chain: MGSSHHHHHHSSGLVPRGSHMNDLGFSLFEKRELSSQNPFGYPIGCSPQDVAIIPGLTMELYSYPIVSGTPPNCYDASYVDPEYPRTGYLKRKMVGKSTGVTGNLNYKYSVEKACMVKYGNLPAGYNYNEPLTVSNFTMILYGYFKAQTTGLHTFFVNADDLLYINFGAGNAFDCCKREDSKTKLGEYVAYDIWHVDSSKNKVSLFLEKDLYYPIRMFFNNIGKDSSLDLSFSVNGATDQISDFSGYLYSVPDQPDTCPAHIGYDTTCR
- glycan array binding signal (z-score) [1]: 0.117
- glycan array binding signal (z-score) [2]: -0.197
- glycan array binding signal (z-score) [3]: -0.261
- glycan array binding signal (z-score) [4]: -0.14
- glycan array binding signal (z-score) [5]: 0.784
- glycan array binding signal (z-score) [6]: -0.154
- glycan array binding signal (z-score) [7]: 0.041
- glycan array binding signal (z-score) [8]: -0.243
- glycan array binding signal (z-score) [9]: -0.227
- glycan array binding signal (z-score) [10]: -0.023
- glycan array binding signal (z-score) [11]: -0.221
- glycan array binding signal (z-score) [12]: -0.264
- glycan array binding signal (z-score) [13]: 0.177
- glycan array binding signal (z-score) [14]: -0.113
- glycan array binding signal (z-score) [15]: -0.234
- glycan array binding signal (z-score) [16]: 0.035
- glycan array binding signal (z-score) [17]: -0.21
- glycan array binding signal (z-score) [18]: 0.103
- glycan array binding signal (z-score) [19]: 0.116
- glycan array binding signal (z-score) [20]: -0.328
- glycan array binding signal (z-score) [21]: -0.171
- glycan array binding signal (z-score) [22]: 0.257
- glycan array binding signal (z-score) [23]: -0.259
- glycan array binding signal (z-score) [24]: -0.034
- glycan array binding signal (z-score) [25]: -0.3
- glycan array binding signal (z-score) [26]: -0.258
- glycan array binding signal (z-score) [27]: -0.328
- glycan array binding signal (z-score) [28]: -0.216
- glycan array binding signal (z-score) [29]: -0.2
- glycan array binding signal (z-score) [30]: -0.314
